± gives the standard error. Variants at the floor of the assay are shown more often than the library holds them.
B1: glmS ribozyme (parent)
chain: AUAAAAGCGCCAGAACUACAGAAAUGUAGUUGACGAGGAGGAGGUUUAUCGAAUUUUCGGCGGAUGCCUCCAAA

Variants of: B1
Assay: self-cleavage kobs at 2500 uM GlcN6P; higher = faster cleavage; RNA array
Details: with glucosamine-6-phosphate
Method in brief: (§1)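 Glucosamine-6-phosphate in HEPES/KCl/Mg(OAc)2 buffer, at 40 μM to 10 mM, was flowed over barcoded ribozyme variants transcribed in situ by E. coli RNA polymerase on sequenced MiSeq chips. Tracking was through a hybridised Cy3 probe at 37 °C. kobs, kcat and KM came from exponential decay fits and weighted Michaelis–Menten fits of normalised per-tile medians.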

Variant	self-cleavage kobs at 2500 uM GlcN6P
C10U A39G C58A	< 1e-05 s⁻¹
G9A G43C U45G U65C	< 1e-05 s⁻¹
G9C U49A A52U	< 1e-05 s⁻¹
C11G A15G U46A	< 1e-05 s⁻¹
C8U C11U G13C U65C	< 1e-05 s⁻¹
C11A G13U A14C G37C C71U	< 1e-05 s⁻¹
C11G A12G G38A A42G G51U	< 1e-05 s⁻¹
G9A A36U A53G	< 1e-05 s⁻¹
C10A A12U G38U G44C	< 1e-05 s⁻¹
C11A G37C U55A U65C	< 1e-05 s⁻¹
C11A G13A A36C U49A G62U	< 1e-05 s⁻¹
C10U G29U C61A C67G	0.000121 ± 2.9e-05 s⁻¹
G9C C11U U54A A64U	< 1e-05 s⁻¹
G9C U30G A42C C70G	< 1e-05 s⁻¹
G9C C11U U46G	< 1e-05 s⁻¹
C10U A12U G63C C70A C71A	5.29e-05 ± 1.7e-05 s⁻¹
C10A G51C G63U	< 1e-05 s⁻¹
G9U C11U A14U U31C A64U	< 1e-05 s⁻¹
G9U C10G A15G U45G	< 1e-05 s⁻¹
C11A G44U A52U C68U	< 1e-05 s⁻¹
C10U A15G U31A G32U U65G	< 1e-05 s⁻¹
C8U A39C G40U U46G U47C C67U	< 1e-05 s⁻¹
G9A C10U U31C G44A	< 1e-05 s⁻¹
C10U G32U G35C U47G U49G G60U	< 1e-05 s⁻¹
C10A C70U	2.56e-05 ± 1.3e-05 s⁻¹
G9A A33U G43A U46G G59U	< 1e-05 s⁻¹
C10U G44A U45C C68G	< 1e-05 s⁻¹

Variant	self-cleavage kobs at 2500 uM GlcN6P
C10U G13U A52U U55A C68U	< 1e-05 s⁻¹
G9U U30C G51U	< 1e-05 s⁻¹
C8U C11U U30A A52C U69G	< 1e-05 s⁻¹
C8U G66U C68U	< 1e-05 s⁻¹
G9C C10A A14U U57G	< 1e-05 s⁻¹
C10G G44U C50G C67A U69G	< 1e-05 s⁻¹
C10U C16A A39C U57A	< 1e-05 s⁻¹
C10U A14C C34A	< 1e-05 s⁻¹
G9A U55G U65A	< 1e-05 s⁻¹
C10G C61U A64U U65G	< 1e-05 s⁻¹
C8U C50A G59C U65G C70U	< 1e-05 s⁻¹
G9U A39G A53U	< 1e-05 s⁻¹
G9U G51U U57A C71A	< 1e-05 s⁻¹
G9C C16G G29U	< 1e-05 s⁻¹
G9C G29A G51U C67A	< 1e-05 s⁻¹
C8U U31A G43U U55A	< 1e-05 s⁻¹
C8U A15G A42G A48G C50U	< 1e-05 s⁻¹
C10G A33U G51U C67G	< 1e-05 s⁻¹
C10G U30G A42U A52U U54G	< 1e-05 s⁻¹
G9U G13U G43C G44U C58G U65G	< 1e-05 s⁻¹
C8U A36G G60U	< 1e-05 s⁻¹
C11A G35C G44U G63A U65G	< 1e-05 s⁻¹
C10U U31A A39U G51C	< 1e-05 s⁻¹
C10A A12G G13U U45G U56G	< 1e-05 s⁻¹
C8U A15U A36C	< 1e-05 s⁻¹
G9U U45A U57C C68A	< 1e-05 s⁻¹
C10G A36U G40U A53U C68U	< 1e-05 s⁻¹

Variant	self-cleavage kobs at 2500 uM GlcN6P
C10A C11G U30A C34G C70A	< 1e-05 s⁻¹
C10A G40U U56A U65C	< 1e-05 s⁻¹
C10G U47G G51A	< 1e-05 s⁻¹
G9U U54C G63C	< 1e-05 s⁻¹
G9A A33U A39C A42U U46G U55A G60U A64U	< 1e-05 s⁻¹
G9C G32U A64U	< 1e-05 s⁻¹
C10G C16A A39C A52U	< 1e-05 s⁻¹
G9U G32U G38U A42U	< 1e-05 s⁻¹
C10G A12G U47G U54C C68U	< 1e-05 s⁻¹
G9A G29A A39G G43U U45G U54A	< 1e-05 s⁻¹
G9U C67U	< 1e-05 s⁻¹
G9C U49A U54A C67A	< 1e-05 s⁻¹
C10U G44U G66A	< 1e-05 s⁻¹
C10G A39G G51A	< 1e-05 s⁻¹
C10G G38U U55A	< 1e-05 s⁻¹
C10G G35U G38A	< 1e-05 s⁻¹
C8U C11G G40C G51A A64C	< 1e-05 s⁻¹
C10U G38C G40U	< 1e-05 s⁻¹
G9A A14U U45G	< 1e-05 s⁻¹
G9C C11A G63C	< 1e-05 s⁻¹
G9U C34A G38U U69G	< 1e-05 s⁻¹
C10G C34A A52U	< 1e-05 s⁻¹
C10U U31G U49A G62U	< 1e-05 s⁻¹
G9C C11G G13U A14U U31A A64U	< 1e-05 s⁻¹
G9A G29U U31G G32A	< 1e-05 s⁻¹

Variants of: B1
Assay: self-cleavage kobs at 10000 uM GlcN6P; higher = faster cleavage; RNA array
Details: with glucosamine-6-phosphate
Method in brief: as §1

Variant	self-cleavage kobs at 10000 uM GlcN6P
C11G A15G U46A	< 1e-05 s⁻¹
G9A A33U G43A U46G G59U	< 1e-05 s⁻¹
C10U G44A U45C C68G	< 1e-05 s⁻¹
C8U A15G A42G A48G C50U	< 1e-05 s⁻¹
G9U C67U	< 1e-05 s⁻¹
C10U G44U G66A	< 1e-05 s⁻¹
C10G G35U G38A	< 1e-05 s⁻¹
C10G C34A A52U	< 1e-05 s⁻¹

Source: the supplement of paper PMC7125110
